Data as given in the BET-seq Pho4 binding data (Le et al. 2018).
The list shows a part of the results. Values were computed here from the reads of four pooled replicates and scatter widely.

biological target: T1, Pho4 (S. cerevisiae) (UniProt P07270); experiment: relative binding free energy (BET-seq); higher = weaker binding; settings: reference: library average
T1 sequence: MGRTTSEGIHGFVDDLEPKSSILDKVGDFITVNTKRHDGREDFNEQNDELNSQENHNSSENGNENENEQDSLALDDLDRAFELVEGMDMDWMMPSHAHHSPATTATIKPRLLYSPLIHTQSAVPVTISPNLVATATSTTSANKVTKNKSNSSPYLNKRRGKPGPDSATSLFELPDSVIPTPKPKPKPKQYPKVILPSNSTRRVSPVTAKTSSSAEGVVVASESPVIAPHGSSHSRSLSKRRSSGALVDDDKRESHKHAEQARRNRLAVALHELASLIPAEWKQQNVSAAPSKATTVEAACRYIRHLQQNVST

Row | Sequence | relative binding free energy [kcal/mol]
1 | GGGGTCACGTGTACGT | 0.22
2 | TTTCACACGTGGGGTT | -0.13
3 | TGATTCACGTGCGGGC | 0.36
4 | AAGAGCACGTGGATTT | -0.04
5 | TTTGCCACGTGTAATG | -0.02
6 | TTAGTCACGTGGTTAC | 0.08
7 | TTGTTCACGTGTATAC | 0.2
8 | TGTGTCACGTGTAACT | 0.18
9 | AGTTGCACGTGAATCG | 0.21
10 | TGATGCACGTGATTAG | 0.03
11 | AGAGTCACGTGGGTTG | 0
12 | ATCGTCACGTGTTGCT | 0.13
13 | ATTGGCACGTGTGTGG | -0.03
14 | TGTAACACGTGGTTCA | -0.12
15 | AATGGCACGTGAATGG | 0.06
16 | GAGTTCACGTGGGAAT | 0.43
17 | GGTAACACGTGATGGA | 0.11
18 | CGTTTCACGTGTGTCT | 0.26
19 | AAGGTCACGTGTTCTG | 0.12
20 | GGTAACACGTGAGAGG | 0.23
21 | ATAGTCACGTGGTAGC | 0.06
22 | GTCTACACGTGGTAGG | 0.21
23 | TCGGTCACGTGATTGG | 0.28
24 | TTGTACACGTGGAAGG | 0.08
25 | GGCGTCACGTGTATAA | 0.31

Row | Sequence | relative binding free energy [kcal/mol]
26 | TTCGGCACGTGCAGGC | -0.04
27 | CGTTGCACGTGTAGGT | -0.03
28 | GGGTGCACGTGACTAG | 0.09
29 | CAGAGCACGTGTTTTG | -0.03
30 | GGTGTCACGTGTACTA | 0.24
31 | TACCGCACGTGGGGTT | -0.25
32 | ATGTACACGTGTATCT | 0.22
33 | CGAGGCACGTGTGAAG | -0.02
34 | TTGGTCACGTGGGGTC | -0.03
35 | TAATTCACGTGTATTT | 0.13
36 | TGCTTCACGTGAATGG | 0.44
37 | GTGTTCACGTGAGGCC | 0.34
38 | TCGTGCACGTGTTGGA | -0.04
39 | AGGTCCACGTGTGGAG | 0.11
40 | TTCGGCACGTGTTGGC | -0.09
41 | CTTAGCACGTGGGGTA | -0.13
42 | GGGAGCACGTGTGTAA | -0.03
43 | AATGGCACGTGTTGTA | -0.21
44 | GAATTCACGTGTTAGG | 0.39
45 | GGTATCACGTGCATTT | 0.4
46 | TGGTCCACGTGAAAGT | 0.22
47 | TGGCTCACGTGGAAAG | 0.32
48 | GCTTACACGTGGATTT | 0.13
49 | AGGTCCACGTGTGGGA | 0.01
50 | GAACGCACGTGGGAGG | -0.21

Row | Sequence | relative binding free energy [kcal/mol]
51 | ACGTACACGTGTAGGG | -0.05
52 | TATCGCACGTGGAAGG | -0.1
53 | TTGTACACGTGAAGGA | 0.19
54 | ATGCGCACGTGAATGT | 0.18
55 | ATTTTCACGTGAGTGG | 0.38
56 | TGAGACACGTGTGGGT | 0.03
57 | TTGGTCACGTGGGGTG | 0.03
58 | AAGTACACGTGGATGA | 0.13
59 | GGGCTCACGTGGGGCT | 0.1
60 | TGAAGCACGTGTTGGA | -0.12
61 | TTTTTCACGTGGATTG | 0.23
62 | CGGATCACGTGGGTCG | -0.02
63 | GTTGTCACGTGGGAAC | 0.18
64 | CGGGTCACGTGGTAAA | -0.04
65 | GGAGTCACGTGGGCAG | 0.01
66 | GAGTGCACGTGGTAAT | -0.04
67 | TGTTCCACGTGTGGAA | 0.15
68 | GGCGCCACGTGTGTGG | -0.04
69 | AATGGCACGTGGTCGA | -0.17
70 | AGGGTCACGTGTATGT | 0.11
71 | TTGTACACGTGGGTGG | -0.01
72 | GTGTGCACGTGGAGAG | -0.07
73 | AGTCGCACGTGAGAGG | 0.28
74 | CAAGGCACGTGTGGCG | -0.15
75 | GTGGGCACGTGCTATG | -0.2

Row | Sequence | relative binding free energy [kcal/mol]
76 | GTTCTCACGTGTGGGC | 0.28
77 | GAATTCACGTGTTCGT | 0.3
78 | ATGGGCACGTGCTGGG | -0.13
79 | TTATTCACGTGAAAGA | 0.41
80 | ATGGGCACGTGAAGTA | 0.03
81 | TGTTACACGTGATACG | 0.12
82 | AATGTCACGTGTCGTG | 0.15
83 | GGTGACACGTGAACGG | 0.33
84 | TGGGTCACGTGTCCTG | 0.15
85 | TGTATCACGTGAAGTG | 0.29
86 | GGGTGCACGTGGAAGT | 0.14
87 | CTTAGCACGTGATGGG | 0.21
88 | ATTTACACGTGGGTAA | -0.04
89 | TGGTACACGTGTTGAG | 0.09
90 | GAATGCACGTGCGGTG | -0.01
91 | GCGTGCACGTGTATGG | -0.04
92 | AGGGTCACGTGCTGGG | 0.03
93 | GTTTTCACGTGAGACT | 0.45
94 | TCTTGCACGTGTATGT | 0.05
95 | TTGCTCACGTGGTGCG | 0.06
96 | ATTGTCACGTGGATGC | -0.07
97 | ATGGTCACGTGTGCAT | 0.12
98 | TTGGTCACGTGTTACA | 0.01
99 | TTACTCACGTGTTATA | 0.07
100 | TCTGCCACGTGGTGGG | -0.29

Row | Sequence | relative binding free energy [kcal/mol]
101 | TGTGTCACGTGGGATC | 0.04
102 | GGTGACACGTGCGGTT | 0.15
103 | GGTTACACGTGTGACG | 0.09
104 | GTGGTCACGTGTTGAG | 0.13
105 | TGATTCACGTGTGTTG | 0.21
106 | TTGGGCACGTGAAATT | 0.12
107 | ATCGGCACGTGGGGTC | -0.34
108 | CATGGCACGTGGGGGA | -0.24
109 | TGTTTCACGTGTTATC | 0.18
110 | TGTGCCACGTGATGAT | 0.03
111 | GTTTTCACGTGTCAGT | 0.46
112 | GCAAGCACGTGGGGCG | -0.3
113 | AGTGTCACGTGTAGGT | 0.09
114 | GATATCACGTGGGGTC | 0.04
115 | CCTGTCACGTGGGGGA | -0.01
116 | TGTAGCACGTGGTGCA | -0.12
117 | GGAAGCACGTGGTAGA | -0.07
118 | AAGGGCACGTGGCTAT | -0.18
119 | GGTAGCACGTGTCAGG | 0.01
120 | TGTGTCACGTGAAGGG | 0.25
121 | GAGTCCACGTGTGGTG | 0.17
122 | CGGTGCACGTGGAGGT | 0.07
123 | TGTAACACGTGGGGCC | -0.13
124 | GTTGTCACGTGTCCGG | 0.24
125 | CTGTTCACGTGTGTTA | 0.4

Row | Sequence | relative binding free energy [kcal/mol]
126 | GGTGACACGTGCTGGC | 0.05
127 | GGCATCACGTGTATTT | 0.24
128 | TAAGGCACGTGGCGGA | -0.27
129 | GGGTTCACGTGCATAA | 0.34
130 | TCTGGCACGTGAGTTT | 0.01
131 | GGGTTCACGTGTTAAT | 0.33
132 | TAATACACGTGGGGGC | 0.06
133 | CACTGCACGTGGGGGA | -0.1
134 | GAGACCACGTGTGTGG | 0.13
135 | GAGATCACGTGCGGGG | -0.08
136 | AGTTTCACGTGTGGGT | 0.22
137 | GGGTCCACGTGCATGT | -0.04
138 | TTGAGCACGTGGTGCG | -0.08
139 | CGGGACACGTGAGGTG | 0.14
140 | TTGAGCACGTGGGAGT | -0.08
141 | CAGTTCACGTGATTGT | 0.34
142 | AATTTCACGTGGATCG | 0.39
143 | TCTGGCACGTGAGGAA | 0.15
144 | TTTCGCACGTGGTTAT | -0.18
145 | CGGGTCACGTGAGTGG | 0.18
146 | GTAACCACGTGTGTAT | 0.06
